Experimental data taken from PMC4336329 (PLoS ONE, 2015).
Screen size: about 310,000 compounds; about 2,200 (0.71%) showed an effect of 50% or more. Effects have a minus sign here. This is one part of the list.

Molecular target: human ether-à-go-go-related gene (hERG) potassium channel (human, UniProt Q12809)
Experiment: primary screen, population patch clamp on CHO cells stably expressing hERG

human ether-à-go-go-related gene (hERG) potassium channel, sequence (Q12809 whole entry, looked up): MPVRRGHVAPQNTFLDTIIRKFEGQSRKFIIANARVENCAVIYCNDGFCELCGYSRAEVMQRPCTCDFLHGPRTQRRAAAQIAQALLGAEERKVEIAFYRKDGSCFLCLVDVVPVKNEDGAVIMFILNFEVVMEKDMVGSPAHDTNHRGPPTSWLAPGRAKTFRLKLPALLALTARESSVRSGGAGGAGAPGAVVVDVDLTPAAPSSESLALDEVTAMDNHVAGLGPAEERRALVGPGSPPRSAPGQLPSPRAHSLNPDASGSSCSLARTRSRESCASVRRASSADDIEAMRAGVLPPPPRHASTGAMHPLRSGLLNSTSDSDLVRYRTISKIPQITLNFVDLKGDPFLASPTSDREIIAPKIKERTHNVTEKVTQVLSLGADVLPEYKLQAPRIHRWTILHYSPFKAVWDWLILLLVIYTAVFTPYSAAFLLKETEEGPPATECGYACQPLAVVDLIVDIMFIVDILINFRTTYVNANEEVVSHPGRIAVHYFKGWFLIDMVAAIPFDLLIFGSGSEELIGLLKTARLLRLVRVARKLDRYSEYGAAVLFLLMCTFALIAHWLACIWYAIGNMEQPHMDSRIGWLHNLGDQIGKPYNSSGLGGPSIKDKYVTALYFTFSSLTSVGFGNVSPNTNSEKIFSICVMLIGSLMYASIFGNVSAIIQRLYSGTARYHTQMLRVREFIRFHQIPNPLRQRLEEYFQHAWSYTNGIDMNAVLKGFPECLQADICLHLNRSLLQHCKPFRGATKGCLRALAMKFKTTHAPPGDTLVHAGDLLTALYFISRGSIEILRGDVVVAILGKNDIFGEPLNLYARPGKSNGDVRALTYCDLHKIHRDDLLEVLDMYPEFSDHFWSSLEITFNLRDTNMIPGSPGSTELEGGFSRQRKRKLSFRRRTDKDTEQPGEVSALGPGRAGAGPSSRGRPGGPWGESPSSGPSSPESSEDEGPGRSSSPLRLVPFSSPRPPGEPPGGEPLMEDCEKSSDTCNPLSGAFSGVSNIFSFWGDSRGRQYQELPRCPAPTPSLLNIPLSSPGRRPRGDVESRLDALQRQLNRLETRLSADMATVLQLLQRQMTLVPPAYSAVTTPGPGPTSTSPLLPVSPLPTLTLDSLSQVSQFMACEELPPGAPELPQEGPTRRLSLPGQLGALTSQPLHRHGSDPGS

| SMILES | hERG current change (%, negative = inhibition) at 1uM |
| --- | --- |
| O=C(c1ccc(OC2CCN(C(=O)C3CC3)CC2)cc1)N(CCO)Cc1ccccc1 | 5.02% |
| FC(F)(F)c1cnc(-n2cc[nH]c2=S)c(Cl)c1 | 9.98% |
| O=C(CCCOc1ccc(Cl)cc1)N1CCCCC1 | 8.46% |
| O=C(O)c1[nH]c2ccccc2c1C(c1cccc(O)c1)c1c(C(=O)O)[nH]c2ccccc12 | 19.1% |
| COCCN1Cc2cccc(C(=O)Nc3ccc(-c4nc5ccccc5[nH]4)cc3)c2C1=O | 6.52% |
| O=C(Nc1ccc(Cl)cc1)c1ccc2c(=O)n3c(nc2c1)CCCCC3 | -21.1% |
| CC(Oc1cc2oc(=O)cc(-c3ccccc3)c2cc1Cl)C(=O)NCC1CCC(C(=O)O)CC1 (stereo not drawn) | -0.598% |
| Cc1nc(P(=O)(c2ccccc2)c2ccccc2)c(N2CCOCC2)o1 | 12.3% |
| COc1ccc2nc(-c3cccc(N)c3)[nH]c2c1 | 7.21% |
| O=C(Nc1ccc(-c2nc3c(ccc4ccccc43)o2)cc1)c1ccco1 | 7.34% |
| CC(=Nc1ccc2c(c1)CCC2)c1c(O)n(C)c(=O)n(C)c1=O | 12.4% |
| CCOC(=O)c1ccc(NC(=S)N(CCCN(CC)CC)Cc2ccco2)cc1 | -57.9% |
| COC(=O)NCc1ccc(S(=O)(=O)N2CCOCC2)cc1 | 15.9% |
| O=C(CCc1ccc(S(=O)(=O)NCc2ccccc2)cc1)NCC1CCCO1 (stereo not drawn) | 12.5% |
| Cc1ccc(NC(=O)CC(NCC2CCCO2)C(=O)O)cc1C (stereo not drawn) | 14.9% |
| O=C(NCc1ccccc1)C1CC(=O)N(c2ccc(OCC(=O)N3CCCC3)cc2)C1 (stereo not drawn) | 6.59% |
| COc1ccc(NC(=O)CCSc2ccc3ccccc3n2)cc1 | 0.419% |
| Cc1ccc(CN2CCN(Cc3ccc(-n4cccn4)cc3C)CC2CCO)cc1 (stereo not drawn) | -83.8% |
| COc1ccccc1CN1CCCC(C(=O)c2ccccc2SC)C1 (stereo not drawn) | -27.3% |
| COc1ccc([N+](=O)[O-])cc1NC(=O)Cc1ccc(C)cc1 | 13.7% |
| Cc1nc2nc(Cc3ccccc3)nn2c(C)c1Cl | 5.07% |
| Cn1cc(CNC(=O)c2cc(-c3ccccc3)nc3ccc(Br)cc23)cn1 | 12.7% |
| CCOc1ccc(N2CC(C(=O)Nc3nnc(Cc4ccc(OC)cc4)s3)CC2=O)cc1 (stereo not drawn) | 8.33% |
| COc1cc2c(C#CCCO)c(-c3ccc(C#N)cc3)oc(=O)c2cc1OC | -15.6% |
